The source of these data is ChEMBL document CHEMBL4888484, “Replenishing the malaria drug discovery pipeline: Screening and hit evaluation of the MMV Hit Generation Library 1 (HGL1) against asexual blood stage Plasmodium falciparum ,using a nano luciferase reporter read-out” (2022).

SMILES strings stand for the structures. Hit rate of the full screen: of about 150,000 compounds, about 540 (0.36%) showed an effect of 50% or more. The list shows a part of the results.

The subject of the experiment is Plasmodium falciparum. Nature of the experiment: Primary screen in NF54 nanoGlo assay, in single point, at 2uM, 72h; a lower Z score goes with more inhibition. Format: functional, Erythrocyte. Particulars: timepoint 72 hour.
Broadly, the % Inhibition is the relative decrease from the control value, in per cent. Consider `Cc1csc(Cn2ccnc2-c2cncc(Br)c2)n1`, for which the “% Inhibition” value is -4% and the Z score is 0.78.
Consider `CCCC[C@H](CC)C(=O)Nc1nnc(C(CC)CC)s1`, for which the “% Inhibition” value is listed as -2% and the Z score is 0.31.
For `C[C@](O)(CNC(=O)CC1CC(c2ccccc2)C1)CN1CCOCC1` (stereo partly specified), in that order: -2% and 0.24.
For `O=C(NCCOc1ccccc1)Nc1ccc(NC(=O)c2ccco2)cc1`, in that order: 8% and -0.98.
The like results for `O=C(CCN1C[C@@H](O)[C@@H](O)[C@@H](O)C1)Nc1cc(Cl)ccc1Cl` were, in that order, -5% and 0.6.
As for `CC(C)COCCCNC(=O)Nc1ccn(CCCn2ccnc2)n1`, the “% Inhibition” value is 1% and the Z score is -0.08.
As to `COc1cccc(Cn2ncnc2-c2cn([C@H]3CC[C@@H](N)CC3)nn2)c1`, the “% Inhibition” value is listed as -16% and the Z score was 2.51.
The like results for `COc1ccc(-c2cc(C(=O)N[C@H](C(=O)N3CCCC3)C(C)C)no2)c(OC)c1` were, in that order, -9% and 1.11.
For `CC(C)Oc1ccc(CN2CC[C@@H]2C)cc1CO`, in that order: 6% and -0.56.
In the case of `COc1nccc(N2CCC3(CC2)CC(=O)N(CC=C(C)C)C3)c1C#N`, the “% Inhibition” value is reported as 5% and the Z score is on record as -0.74.
`CN(C)C(=O)CO[C@H]1COCC[C@@H]1NC(=O)c1c(F)cccc1F`: the “% Inhibition” value amounted to 4% and the Z score was -0.63.
`CCOc1cnc(-c2ccc(F)cc2)[nH]1`: the “% Inhibition” value was -23% and the Z score is 2.71.
Turning to `N#Cc1cnn2c(NC3CCCCC3)c(-c3cccs3)[nH]c12`, the “% Inhibition” value is -6% and the Z score stood at 0.98.
The like results for `C[C@H](C(=O)NS(=O)(=O)c1ccsc1)c1ccccc1` were, in that order, -6% and 1.03.
In the case of `COc1ccc(N2CCN(C(=O)c3cc(=O)c(OCc4ccc(Cl)cc4)c[nH]3)CC2)cc1`, the “% Inhibition” value is recorded as 3% and the Z score is given as -0.43.
On to `O=C1CC(C2CCCCN2Cc2c(F)cccc2F)CN1` (stereo unspecified), for which the “% Inhibition” value amounted to 13% and the Z score is recorded as -1.52.
For the molecule `CCC(=O)N1CCN(C(=O)c2ccc(Cl)cc2)[C@H]2CS(=O)(=O)C[C@H]21`, the “% Inhibition” value is reported as -5% and the Z score was found to be 0.92.
The like results for `Cc1ccc2[nH]c(CNCC(C)(C)CN3CCCC3)nc2c1` were, in that order, -8% and 0.67.
In the case of `C[C@H](NC(=O)c1ccc(Br)cn1)C(N)=O`, the “% Inhibition” value is -1% and the Z score is 0.09.
`OC[C@H]1CCN(Cc2cnc(NCc3ccccc3)nc2)C[C@@H]1O`: the “% Inhibition” value is -11% and the Z score amounted to 1.36.
For `CCc1onc(C)c1NC(=O)NC[C@H]1CN(C)C[C@@H]1c1ccccc1`, the “% Inhibition” value is given as -23% and the Z score was determined as 2.88.
For `Cc1nc(C(C)C)nc(C)c1OCc1nc(-c2cccs2)no1`, in that order: 10% and -1.9.
For the molecule `Cc1cc(=O)[nH]c(CCNS(=O)(=O)N(C)C(C)C)n1`, the “% Inhibition” value is 2% and the Z score was -0.22.
For `CC(C)Cn1nnc2ccc(NC(=O)CCCc3ccccc3)cc2c1=O`, the “% Inhibition” value is 22% and the Z score is reported as -3.57.
The like results for `Cc1cc(C(=O)N[C@H]2CCCN(C)C2)no1` were, in that order, -7% and 1.27.
As for `CCN(C[C@H](C)C#N)S(=O)(=O)N1CCN(c2cc(C)[nH]n2)CC1`, the “% Inhibition” value is -10% and the Z score was determined as 1.29.
Regarding `C[C@H]1CNC(=O)CCN1Cc1ccc2cccc(Cl)c2n1`, the “% Inhibition” value is listed as -14% and the Z score worked out at 1.54.
`CCn1cc(N)c(OCCC(F)(F)F)n1`: the “% Inhibition” value is -12% and the Z score was found to be 1.91.
In the case of `COc1ccc(C)cc1NC(=O)Cn1nc2c(N3CCC[C@H](C)C3)nccn2c1=O`, the “% Inhibition” value is -6% and the Z score is 0.71.
Regarding `O=C(NCCCN1CCCC1=O)c1nnc(Cc2cccc(Cl)c2)o1`, the “% Inhibition” value is on record as -10% and the Z score was found to be 1.5.
The like results for `CCCn1nccc1-c1csc(S(=O)(=O)NC2CCCC2)c1` were, in that order, -13% and 1.64.
For `CCc1cccc(NC(=O)N2CC[C@H](N3CCOCC3)[C@H](CCC(=O)O)C2)c1`, the “% Inhibition” value came to 1% and the Z score is -0.17.
As for `NC(=NCCc1ccc(F)c(F)c1)NC1CC1`, the “% Inhibition” value is given as -24% and the Z score amounted to 2.45.
`CCS(=O)(=O)N1CCC[C@H](C(=O)NC(C(C)C)C(C)C)C1`: the “% Inhibition” value was determined as 4% and the Z score is -0.43.
With `Cc1cc(C)c(C(=O)NCC2CCCC2NS(C)(=O)=O)c(C)c1` (stereo unspecified), the “% Inhibition” value was -9% and the Z score amounted to 1.01.
Regarding `CCOC(=O)c1noc2ncnc(N(CCC(=O)OC)c3ccccc3)c12`, the “% Inhibition” value is on record as -7% and the Z score is 1.23.
As for `CCCN(Cc1csc(COc2cccc(Cl)c2)n1)C(=O)c1ccc(C)cc1`, the “% Inhibition” value is 1% and the Z score is listed as -0.17.
For the molecule `c1nc(NCCCC[C@H]2CCCO2)c2cc[nH]c2n1`, the “% Inhibition” value is on record as 0% and the Z score is on record as 0.05.
With `O=S(=O)(Cc1ccc(OC(F)(F)F)cc1)Nc1cccnc1-n1cccn1`, the “% Inhibition” value turned out to be 2% and the Z score is -0.39.
In the case of `C=C=CCNS(=O)(=O)C[C@@H]1CC[C@H](NC(=O)OC(C)(C)C)C1`, the “% Inhibition” value is listed as -8% and the Z score is given as 0.9.
In the case of `COc1cc(C(=O)N2CC(Nc3ccc(F)cc3)C2)sn1`, the “% Inhibition” value worked out at 0% and the Z score is given as 0.02.
`COc1ccc(-c2[nH]ncc2C(=O)NCC2CCCCC2)cc1OC`: the “% Inhibition” value is listed as 35% and the Z score is listed as -0.66.
On to `COCCC1(CNC(=O)N2CCCCCC2)CCC1`, for which the “% Inhibition” value worked out at 0% and the Z score stood at 0.03.
